Laboratory results taken from PMC4336329 (PLoS ONE, 2015).
About 2,200 (0.71%) of roughly 310,000 compounds showed an effect of 50% or more. Effects have a minus sign here. Some of the results follow.

target: human ether-à-go-go-related gene (hERG) potassium channel (human, UniProt Q12809); assay: primary screen, population patch clamp on CHO cells stably expressing hERG
Sequence (Q12809 whole entry, looked up): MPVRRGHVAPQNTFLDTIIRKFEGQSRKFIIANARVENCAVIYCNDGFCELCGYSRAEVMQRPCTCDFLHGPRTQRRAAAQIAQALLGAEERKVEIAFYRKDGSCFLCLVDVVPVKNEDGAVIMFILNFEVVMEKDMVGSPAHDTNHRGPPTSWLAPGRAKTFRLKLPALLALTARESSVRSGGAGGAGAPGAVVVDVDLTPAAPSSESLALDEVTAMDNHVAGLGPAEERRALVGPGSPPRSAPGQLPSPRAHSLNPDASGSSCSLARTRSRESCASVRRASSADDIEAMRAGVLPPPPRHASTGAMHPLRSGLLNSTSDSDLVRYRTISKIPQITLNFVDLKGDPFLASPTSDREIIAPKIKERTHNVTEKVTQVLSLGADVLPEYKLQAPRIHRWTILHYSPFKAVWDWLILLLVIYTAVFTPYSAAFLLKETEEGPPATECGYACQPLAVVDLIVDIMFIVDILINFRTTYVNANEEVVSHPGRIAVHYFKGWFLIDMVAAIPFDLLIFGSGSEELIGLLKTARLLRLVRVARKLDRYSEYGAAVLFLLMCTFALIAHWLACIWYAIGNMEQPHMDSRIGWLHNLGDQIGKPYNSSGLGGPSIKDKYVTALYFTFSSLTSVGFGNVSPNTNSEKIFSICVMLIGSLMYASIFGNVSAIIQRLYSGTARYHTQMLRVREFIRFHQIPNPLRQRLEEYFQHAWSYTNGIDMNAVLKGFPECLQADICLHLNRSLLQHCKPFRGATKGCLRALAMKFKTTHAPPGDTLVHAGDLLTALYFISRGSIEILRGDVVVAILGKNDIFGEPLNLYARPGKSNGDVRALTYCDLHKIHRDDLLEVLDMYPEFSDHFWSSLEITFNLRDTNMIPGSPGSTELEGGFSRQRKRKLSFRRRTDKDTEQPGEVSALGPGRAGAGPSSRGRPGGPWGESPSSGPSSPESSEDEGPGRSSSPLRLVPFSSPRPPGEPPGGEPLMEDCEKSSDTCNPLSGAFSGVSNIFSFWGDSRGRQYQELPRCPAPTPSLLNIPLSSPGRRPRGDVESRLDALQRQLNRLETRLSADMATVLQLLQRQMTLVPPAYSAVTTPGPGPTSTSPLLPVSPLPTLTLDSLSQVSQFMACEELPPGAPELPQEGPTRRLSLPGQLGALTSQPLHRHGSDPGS

Structure (SMILES) | hERG current change (%, negative = inhibition) at 1uM
CC(=O)Nc1ccc(Oc2ccc3nc(C)[nH]c3c2)cc1 | 14.8%
COc1ccc(CCNC(=O)CCC2COc3ccccc3O2)cc1OC (stereo not shown) | 4.55%
O=C(CSc1c(Cl)cccc1Cl)N1CCC(c2nc3ccccc3s2)CC1 | 6.94%
COc1ccc(-c2cccc(C3CC=CC4C3C(=O)N(Cc3ccccc3)C4c3ccc(OC)c(Cl)c3)c2)cc1 (stereo not shown) | 19.3%
C=C1CCN([C@@H](Cc2ccccc2)C(=O)N2CCOCC2)S(=O)(=O)c2ccccc21 | 10.8%
O=C(Cn1c2ccccc2c(=O)c2ccccc21)Nc1ccccc1F | 2.2%
C[C@@H](C(=O)CC(=O)OC(C)(C)C)[C@@H](O)c1ccccc1 | 18.1%
COc1ccc(N2CCN(CCOc3ccc4c(C)cc(=O)oc4c3)CC2)cc1 | -37.8%
O=C1CC(=O)Nc2cc(S(=O)(=O)N3CCOc4ccccc43)ccc2N1 | 13%
Oc1ccc(Nc2nc(-c3cccnc3)cs2)cc1 | 12%
Cc1ccc(S(=O)(=O)N2CCN(c3cccc(C)c3)CC2)cc1 | 15.6%
O=C(c1ccco1)N1CCN(Cc2ccc(F)cc2Cl)CC1 | 2.37%
O=C(O)C1CC=C(Cl)CC1C(=O)NCc1ccccc1 (stereo not shown) | 11.2%
COc1cccc(NC(=O)CNC(=O)c2ccc(C)cc2)c1 | 14.3%
COc1cccc(CNC(=O)C2CCN(S(=O)(=O)c3c(C)nn(C)c3C)CC2)c1 | 5.89%
Cc1cccc(NC(=S)NNC(=O)c2csc3c2CCCC3)c1 | 14.3%
CCc1ccc(C(=O)COC(=O)c2cc([N+](=O)[O-])ccc2NCCO)cc1 | 4.59%
Cc1ccc(CSc2ccc3nnc(-c4ccccn4)n3n2)cc1 | -36.5%
CC1CCC(NC(=O)CN2CCC(n3nnc4cc(F)ccc43)CC2)CC1 (stereo not shown) | -34.9%
O=C(c1ccc(Oc2ccccc2)cc1)C1CCCN(C(=O)c2cnccn2)C1 (stereo not shown) | 4.18%
COc1ccc(CCC(=O)NCC(=O)OCc2ccccc2)cc1 | 13%
CCOC(=O)C1CCN(C(c2cc3ccc(C)cc3[nH]c2=O)c2nnnn2C2CCCCC2)CC1 (stereo not shown) | -10.5%

Structure (SMILES) | hERG current change (%, negative = inhibition) at 1uM
COC(=O)[C@@]12CCCN1[C@H](c1ccc(-c3ccc(F)cc3)cc1)[C@H]1C(=O)N(C)C(=O)[C@H]12.O=C(O)C(F)(F)F | -0.74%
S=C(c1ccc(N2CCCC2)c(Br)c1)N1CCCCC1 | 9.49%
Cc1ccc(SCCC(=O)N(C)CC(=O)Nc2c(C)cccc2C)cc1 | -13.7%
CC(=O)c1sc(-c2ccc(Cl)cc2)cc1N | 13.5%
CCOC(=O)c1ccc(Oc2cn[nH]c2-c2ccc(OCC(=O)NN)cc2O)cc1 | 6.02%
CC(C(=O)Nc1ccc(O)c(C(=O)O)c1)N1C(=O)/C(=C/c2cccs2)SC1=S (stereo not shown) | 13.4%
CN1CCN(c2nnc(-c3ccccc3)c(-c3ccccc3)n2)CC1 | 7.84%
Cc1cc(NC(=O)CCC(=O)N(CCc2ccccc2)C(C(=O)NC2CCCC2)c2ccco2)no1 (stereo not shown) | -8.68%
COC(=O)Cn1c(C)c(C(C)=O)c(C(C)=O)c1C | 12.7%
OCCN(Cc1ccccc1)Cc1cccc(F)c1 | -2.85%
COc1cc(/C=C2/CC(C)OC2=O)c([N+](=O)[O-])cc1OC (stereo not shown) | 13.1%
CCN(CC)C(=O)Cn1cc(C(=O)C(=O)N2CCN(c3ccccc3)CC2)c2ccccc21 | 6.1%
O=c1cc(Cl)[nH]n(-c2ccccc2)c1=O | 14.8%
Cc1cccc(CCNC(=O)CCS(=O)(=O)c2cc3c(cc2C)NC(=O)CO3)c1 | -7.04%
CCN(CC)S(=O)(=O)c1cc(NC(=O)C(C)Nc2ccccc2N2CCOCC2)ccc1C (stereo not shown) | 14.8%
CCOc1ccc(CCNC(=O)C2CCCN(c3nnc(-n4cccc4)s3)C2)cc1OCC (stereo not shown) | 10.6%
CN1C(=O)C(=O)/C(=C(/O)c2ccc(Br)cc2)C1c1ccc(F)cc1 (stereo not shown) | -1.35%
COCCN(C(=O)CCC(=O)Nc1cc(C)on1)C(C(=O)NC1CCCC1)c1ccccc1C (stereo not shown) | 16.8%
CC(=O)NCCOc1nc(N(C)C)nc(N2CCCCC2)n1 | -1.33%
COCCn1c(SCC(=O)c2cccc(OC)c2)nnc1-c1ccco1 | 0.747%
O=C(N/N=C/c1ccc(OC(=O)c2ccccc2Cl)cc1)c1ccc(O)cc1 | 5.47%
